Assay results reported in PubChem BioAssay AID743279 (National Center for Advancing Translational Sciences (NCATS), 2014).
About 17,000 (4.7%) of roughly 360,000 compounds were called active. This list was built around the results that the source calls inconclusive (neither active nor inactive); the mix of calls is not that of the screen. Rule as the data show it: active = activity change below about -50%; inconclusive = mostly about -30% to -49%; inactive = weaker than that.

Assay: qHTS for Inhibitors of Inflammasome Signaling: IL-1-beta AlphaLISA Primary Screen
Settings: THP-1 LPS/ATP IL-1B secretion, 16 h; at 57.5 µM, active compounds read low
Summary of the method: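 Secreted IL-1B measured by AlphaLISA bead assay after 16 h compound exposure of THP-1 cells; compounds (final up to 57.5 uM) added 1 h before LPS (250 ng/mL) and ATP (1.25 mM) stimulation; lower signal means less secretion.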
% is scaled to controls: 0 for no effect and ±100 for the full control effect.

Activity change, inactive:
Nc1c(C(=O)c2ccccc2)sc2c1c(=O)[nH]c(=O)n2-c1ccccc1 23.8%
COc1ccc(C=C2OC(=O)C(C(C)=O)=C2O)cc1 -9.69%
COc1ccc(Cc2nc(=S)[nH][nH]2)cc1Br 23%
CCCCn1c(N)c(N(C(=O)CSc2nnc(C)n2-c2ccccc2)C2CCCC2)c(=O)[nH]c1=O 43.9%
Cc1ccc(NS(=O)(=O)c2cc(C(=O)NCCCN(C)C)ccc2Cl)cc1Cl -0.914%
Cc1c(C)c2c(OCC(=O)NCc3ccncc3)cc3c(c2oc1=O)CCC(C)(C)O3 -3.96%
c1ccc(C2c3c(ccc4ccccc34)Oc3ncn4nc(-c5ccco5)nc4c32)cc1 (stereo not given) 24.1%
Cc1ccc(C(=O)N/C(=C\c2cccs2)C(=O)NCCCN2CCOCC2)cc1 4.06%
Cc1ccc(C(=O)C2CCN(CC(=O)NCc3ccc(F)cc3)CC2)cc1 -5.66%
COc1cc(C(=O)Nc2ccccc2C(=O)Nc2ccccn2)cc(OC)c1OC 29.6%
Cc1nn(C)c(C)c1S(=O)(=O)N1CCCC(C(=O)NC2CCCCCC2)C1 (stereo not given) 31.1%
Cc1cn([C@H]2C[C@H](O)[C@@H](CNCc3cccn3-c3ccncc3)O2)c(=O)[nH]c1=O 52.8%
Nc1nonc1-n1nnc(C(=O)N/N=C/c2cccnc2)c1CSc1ccc(Cl)cc1 1.18%
COc1ccc(C(=O)C2CCN(CC(=O)Nc3cc(C)cc(C)c3)CC2)cc1 -22.2%
CCOC(=O)c1c(-c2ccc(C)cc2)csc1NC(=O)c1cccc(N2C(=O)CCC2=O)c1 34.2%
COc1ccccc1N1CCN(S(=O)(=O)c2c(C)[nH]c(C)c2C(=O)N2CCCCC2)CC1 40.1%
CCCCNC(=O)CSc1nc2cc3c(cc2c(=O)n1Cc1ccco1)OCO3 9.29%
O=C(CNc1cccc2ccccc12)c1ccc([N+](=O)[O-])cc1 -5.39%
Cc1ccc(CCNC(=O)C2CCCN(c3ncnc4c3nc3n4CCCCC3)C2)cc1 (stereo not given) 15.9%
CCCC(C(=O)NCCC(C)C)N(Cc1ccccc1)C(=O)c1snc(C(N)=O)c1N (stereo not given) -22.4%
C[C@H](CO)N1C[C@H](C)[C@@H](CN(C)S(=O)(=O)c2cn(C)cn2)Oc2ccc(NC(=O)NC3CCCCC3)cc2C1=O -3.74%
COc1ccc(N2CCn3c2nc2c3c(=O)n(CCCc3ccccc3)c(=O)n2C)c(OC)c1 -22.1%
CC(=O)CCC(=O)NC1CCCc2c1cnn2-c1ccc(C(C)(C)C)cc1 (stereo not given) 48.8%

Activity change, inconclusive:
Cc1ccc([N+](=O)[O-])cc1NC(=O)CN(C(=O)c1ccccc1Cl)C1CCCCC1 -47.7%
C[C@H](c1ccccc1)N1C[C@H](COCc2ccccc2)Oc2cc(N3CCC[C@@H]3CO)ccc2S1(=O)=O -38.1%
C#CCOCCOCCOCCNc1nc(N2CCN(C(=O)CCCCCCCCCCNC(=O)[C@H](CCC(=O)O)n3cc(CCCCCN)nn3)CC2)nc(N2CCN(C(=O)CCCCCCCCCCNC(=O)[C@@H]([C@H](C)O)n3cc(C)nn3)CC2)n1 -46.8%
O=[N+]([O-])c1ccc(N/N=C/c2cccc(O)c2O)cc1 -45.1%
O=C(Oc1c(-c2ccccc2)c(=O)n2c3c(cccc13)CC2)c1ccccc1 -39.3%
O=C(NCc1ccc(F)cc1)c1ccc(N2CCOCC2)c([N+](=O)[O-])c1 -37%
COc1ccc(S(=O)(=O)N2CCOCC2)cc1NC(=O)C1CCCCN1S(=O)(=O)c1ccccc1 (stereo not given) -33.4%
CCOc1ccc(CN(C)C(=O)CCc2ccc(S(=O)(=O)N3CCCCCC3)cc2)cc1 -30%
Cc1nnc(N2CCOCC2)c2nn(-c3cccc(Cl)c3)c(C)c12 -37.3%
CCN(c1ccccc1)S(=O)(=O)c1ccc(C(=O)Nc2cccc(C)n2)cc1 -37%
Cc1cccc2nc(-c3cccnc3)c(Nc3ccccc3)n12 -36.7%
COc1ccc(-c2cc(C(=O)NCC(c3ccccc3)N(C)C)c3ccccc3n2)cc1OC (stereo not given) -31.5%
CC1=C(n2nnc([N+](=O)[O-])n2)C(c2cccnc2)C(C#N)=C(N)O1 (stereo not given) -47%
Cc1nc2ccccc2c2oc(C(=O)N3CCC(N4CCCCC4)CC3)cc12 -39.6%
O=C(CCS(=O)(=O)c1ccccc1)Nc1nncs1 -43.1%
COc1cc(NC(=O)c2ccc(F)cc2)c(OC)cc1NC(=O)CN1CCOCC1 -44.9%
Cc1ccccc1-c1nc(CN2CCC(C(=O)NCc3cccs3)CC2)c(C)o1 -40.8%
CCOC(=O)c1c(CN(C)C)n(-c2ccccc2)c2cc(Br)c(O)cc12 -49.9%
O=C(NCCCc1ccccc1)c1cccc(NC(=O)c2ccccc2)c1 -40.6%
COc1ccccc1OCc1ccc(C(=O)Nc2cc(OC)c(OC)c(OC)c2)o1 -40.2%
CCn1c(C)nc2cc(-c3nc4n(n3)Cc3ccccc3-4)ccc21 -30.3%
COc1cc(OC)cc(C(=O)Nc2ccc(NC(=O)c3ccco3)c(Cl)c2)c1 -48.1%
Cc1nc2ccccc2n1CCOc1ccccc1 -34.7%
CC1CCC(CN2CCN=C2Nc2ccccc2)CC1 (stereo not given) -33.8%
COc1ccc(/C=C/C(=O)N(CC(C)C)CC(C)C)cc1Br -45.2%
CC(=O)c1ccc(S(=O)(=O)N2CCN(CC(=O)Nc3ccc(Cl)c([N+](=O)[O-])c3)CC2)cc1 -45.6%
CCn1c(Cn2nnc(-c3ccccc3)n2)nnc1SCC(=O)Nc1cccc(C(C)=O)c1 -41.7%
CC(=O)c1ccc(-c2ccc(C(=O)N3CCCc4ccccc43)o2)cc1 -44.8%
Cc1ccc2c(c1)C(c1ccc(N3CCOCC3)cc1)=NNC(c1cccs1)=N2 -48.4%
COc1ccc(CCNC(=O)CSC2=NS(=O)(=O)c3cc(F)ccc3N2)cc1OC -32.4%
NC(=S)c1cnn2c(-c3cccc(C(F)(F)F)c3)ccnc12 -39.2%
COC(=O)[C@@]1(Cc2ccc(F)cc2)[C@H]2c3cc(C(=O)N4CCCC4)n(Cc4ccc(OC(F)(F)F)cc4)c3C[C@H]2CN1C(=O)c1ccccc1 -48.5%
N=c1cc(C2(O)CCCCC2)n2c(nc3ccccc32)s1 -40.8%
COc1ccccc1CNc1nc2ccccc2n1CCN1CCCCC1 -33.6%
CCOC(=O)c1c(C)[nH]c(C(=O)CSc2nnc(-c3ccncc3)n2CC)c1C -39.4%
O=C(C[C@H]1C[C@H](C(=O)N2CCOCC2)[C@@]2(CCC3CCCC3)c3[nH]c4cc(-c5ccco5)ccc4c3CCN2C1=O)NCCC1=CCCCC1 -34.8%
Cc1cc(OCC(=O)Nc2ccc(S(=O)(=O)N3CCN(C)CC3)cc2)ccc1Br -32.7%
O=C(c1ccco1)n1nc(-c2ccc(Cl)cc2)nc1NCc1ccco1 -30%
COc1ccc(C2(c3ccc(OC)cc3)NC(=O)N(CC(=O)Nc3ccccc3)C2=O)cc1 -38.2%
CCO[C@H]1OC(C(=O)NCc2nc3ccccc3[nH]2)=C[C@@H](C2CCCCC2)[C@@H]1CCCO -36.7%
CC(C)c1ccc(OCC(O)CN2CCN(c3ccccn3)CC2)cc1 (stereo not given) -37.3%

Activity change, active:
COC(=O)c1ccc(OCC2c3cc(OC)c(OC)cc3CCN2C(=O)c2ccco2)cc1 (stereo not given) -52.6%
COC(=O)c1nnn(CC(=O)Nc2cccc(OC)c2)c1C(=O)OC -60.8%
COC(=O)Cn1cc(/C=C(/C#N)C(=O)N2CCOCC2)c2ccccc21 -61.3%
CCCCCCCCCc1nc2sc3c(c2c(=O)n1NC(=O)c1ccccc1[N+](=O)[O-])CC(C)(C)OC3 -74.4%
CCN(c1ccccc1)S(=O)(=O)c1ccc(C(=O)N(CCCN(C)C)c2nc3c(C)cccc3s2)cc1 -70.6%
CC(C)(C)CC(C)(C)NCC(O)COc1ccc2c(c1)CCC2 (stereo not given) -75.1%
Cc1cc(C)c2c3c(sc2n1)C(c1cccc(F)c1)C(C#N)=C(N)O3 (stereo not given) -79.3%
C/C(=N\Nc1ccc([N+](=O)[O-])cc1)c1ccc(O)cc1 -61.5%
CN1CCN(c2ccc(S(=O)(=O)N3CCCCC3)cc2NC(=O)c2ccc3ccccc3c2)CC1 -92%
COc1cc(NC(=O)CSCC(=O)Nc2cccc(C(F)(F)F)c2)c(Cl)cc1Cl -61.7%
COc1ccc(OCc2nc3ccc(S(=O)(=O)Nc4ccccc4Cl)cc3[nH]2)cc1 -51%
CCCCNC(=O)c1ccc2nc(CC)c(N(C)Cc3cccs3)n2c1 -74%
Cc1ccc(OCCCCN(C)Cc2ccccc2)c(Br)c1 -97.6%
Cc1ccc(-c2csc(NC(=O)C[n+]3cc(-c4ccc(C)cc4)n4c3CCC4)n2)cc1 -93.5%
CCCCCCCCN1C(=O)[C@H](CC(=O)NCc2ccccc2)C[C@@]2(C(=O)OC)CCCCC=C12 -82.2%
CC(C)c1ccc(OCc2nc(-c3ccccn3)no2)c(Br)c1 -53.9%
